# The other results are listed elsewhere or left out.
# B1: diCBM40 CPF071 (Clostridium perfringens) (protein)
# chain: MAHHHHHHVGTGSNDDDDKSPDPMLSSLGEYKDINLESSNASNITYDLEKYKNLDEGTIVVRFNSKDSKIQSLLGISNSKTKNGYFNFYVTNSRVGFELRNQKNEGNTQNGTENLVHMYKDVALNDGDNTVALKIEKNKGYKLFLNGKMIKEVKDTNTKFLNNIENLDSAFIGKTNRYGQSNEYNFKGNIGFMNIYNEPLGDDYLLSKTGETKALNGSELGSGSGLSSLGEYKDINLESSNASNITYDLEKYKNLDEGTIVVRFNSKDSKIQSLLGISNSKTKNGYFNFYVTNSRVGFELRNQKNEGNTQNGTENLVHMYKDVALNDGDNTVALKIEKNKGYKLFLNGKMIKEVKDTNTKFLNNIENLDSAFIGKTNRYGQSNEYNFKGNIGFMNIYNEPLGDDYLLSKTGETK
# How the values were obtained:
# Assay in all cases: glycan array binding signal (z-score within array); higher = stronger binding
# Conditions in all cases: glycan notation: IUPAC condensed, linker removed
# Neu5Ac(a2-8)Neu5Ac = target: Neu5Ac(a2-8)Neu5Ac
# How it was run: (§1)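 Glycan array data came from 3228 arrays in the Consortium for Functional Glycomics database, and only arrays with an available protein sequence were kept. Glycan names were put into IUPAC-condensed notation, and columns mapping to the same glycan were averaged. The binding signal is a within-array Z-score, averaged across arrays of one protein sequence run at different concentrations or buffers and across linkers. A negative Z-score can be read as non-binding.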
# [1] = target: Neu5Ac(a2-8)Neu5Ac(a2-3)Gal(b1-3)GalNAc(b1-4)[Neu5Ac(a2-3)]Gal(b1-4)Glc
# How it was run: as §1
# [2] = target: Neu5Ac(a2-8)Neu5Ac(a2-3)Gal(b1-3)GalNAc(b1-4)[Neu5Ac(a2-8)Neu5Ac(a2-3)]Gal(b1-4)Glc
# How it was run: as §1
# [3] = target: Neu5Ac(a2-8)Neu5Ac(a2-3)Gal(b1-4)Glc
# How it was run: as §1
# [4] = target: Neu5Ac(a2-8)Neu5Ac(a2-3)Gal(b1-4)GlcNAc
# How it was run: as §1
# [5] = target: Neu5Ac(a2-8)Neu5Ac(a2-3)[Gal(b1-3)GalNAc(b1-4)]Gal(b1-4)Glc
# How it was run: as §1
# [6] = target: Neu5Ac(a2-8)Neu5Ac(a2-3)[GalNAc(b1-4)]Gal(b1-4)Glc
# How it was run: as §1
# [7] = target: Neu5Ac(a2-8)Neu5Ac(a2-8)Neu5Ac
# How it was run: as §1
# [8] = target: Neu5Ac(a2-8)Neu5Ac(a2-8)Neu5Ac(a2-3)Gal(b1-4)Glc
# How it was run: as §1
# [9] = target: Neu5Ac(a2-8)Neu5Ac(a2-8)Neu5Ac(a2-3)[Gal(b1-3)GalNAc(b1-4)]Gal(b1-4)Glc
# How it was run: as §1
# [10] = target: Neu5Ac(a2-8)Neu5Ac(a2-8)Neu5Ac(a2-3)[GalNAc(b1-4)]Gal(b1-4)Glc
# How it was run: as §1
# [11] = target: Neu5Ac(a2-8)Neu5Ac(a2-8)Neu5Ac(a2-8)Neu5Ac(a2-3)[GalNAc(b1-4)]Gal(b1-4)Glc
# How it was run: as §1
# [12] = target: Neu5Ac(a2-8)Neu5Gc(a2-3)Gal(b1-4)GlcNAc
# How it was run: as §1
# [13] = target: Neu5Ac(b2-6)Gal(b1-4)GlcNAc
# How it was run: as §1
# Neu5Ac(b2-6)GalNAc = target: Neu5Ac(b2-6)GalNAc
# How it was run: as §1
# [14] = target: Neu5Ac9Ac(a2-3)Gal(b1-3)GlcNAc
# How it was run: as §1
# [15] = target: Neu5Ac9Ac(a2-3)Gal(b1-4)GlcNAc
# How it was run: as §1
# [16] = target: Neu5Ac9Ac(a2-6)Gal(b1-4)GlcNAc
# How it was run: as §1
# [17] = target: Neu5Gc(a2-3)Gal(b1-3)GlcNAc
# How it was run: as §1
# [18] = target: Neu5Gc(a2-3)Gal(b1-3)[Fuc(a1-4)]GlcNAc
# How it was run: as §1
# Neu5Gc(a2-3)Gal(b1-4)Glc = target: Neu5Gc(a2-3)Gal(b1-4)Glc
# How it was run: as §1
# [19] = target: Neu5Gc(a2-3)Gal(b1-4)GlcNAc
# How it was run: as §1
# [20] = target: Neu5Gc(a2-3)Gal(b1-4)GlcNAc(b1-3)Gal(b1-4)GlcNAc(b1-2)Man(a1-3)[Neu5Gc(a2-3)Gal(b1-4)GlcNAc(b1-3)Gal(b1-4)GlcNAc(b1-2)Man(a1-6)]Man(b1-4)GlcNAc(b1-4)GlcNAc
# How it was run: as §1
# [21] = target: Neu5Gc(a2-3)Gal(b1-4)[Fuc(a1-3)]GlcNAc
# How it was run: as §1
# [22] = target: Neu5Gc(a2-6)Gal(b1-4)GlcNAc
# How it was run: as §1
# Neu5Gc(a2-6)GalNAc = target: Neu5Gc(a2-6)GalNAc
# How it was run: as §1
# [23] = target: Neu5Gc(a2-8)Neu5Ac(a2-3)Gal(b1-4)GlcNAc
# How it was run: as §1
# [24] = target: Neu5Gc(a2-8)Neu5Gc(a2-3)Gal(b1-4)GlcNAc
# How it was run: as §1
# [25] = target: Neu5Gc(a2-8)Neu5Gc(a2-3)Gal(b1-4)GlcNAc(b1-3)Gal(b1-4)GlcNAc
# How it was run: as §1
# [26] = target: Neu5Gc(a2-8)Neu5Gc(a2-6)Gal(b1-4)GlcNAc
# How it was run: as §1
# [27] = target: Neu5Gc(b2-6)Gal(b1-4)GlcNAc
# How it was run: as §1
binder,measurement,setting,value
B1,glycan array binding signal (z-score),Neu5Ac(a2-8)Neu5Ac,-0.046
same,glycan array binding signal (z-score),[1],-0.2
same,glycan array binding signal (z-score),[2],-0.286
same,glycan array binding signal (z-score),[3],-0.24
same,glycan array binding signal (z-score),[4],-0.076
same,glycan array binding signal (z-score),[5],0.004
same,glycan array binding signal (z-score),[6],-0.321
same,glycan array binding signal (z-score),[7],0.019
same,glycan array binding signal (z-score),[8],0.209
same,glycan array binding signal (z-score),[9],-0.251
same,glycan array binding signal (z-score),[10],-0.278
same,glycan array binding signal (z-score),[11],-0.326
same,glycan array binding signal (z-score),[12],-0.295
same,glycan array binding signal (z-score),[13],-0.286
same,glycan array binding signal (z-score),Neu5Ac(b2-6)GalNAc,-0.097
same,glycan array binding signal (z-score),[14],1.26
same,glycan array binding signal (z-score),[15],2.9
same,glycan array binding signal (z-score),[16],-0.299
same,glycan array binding signal (z-score),[17],1
same,glycan array binding signal (z-score),[18],0.647
same,glycan array binding signal (z-score),Neu5Gc(a2-3)Gal(b1-4)Glc,-0.041
same,glycan array binding signal (z-score),[19],3.31
same,glycan array binding signal (z-score),[20],6.28
same,glycan array binding signal (z-score),[21],0.856
same,glycan array binding signal (z-score),[22],-0.146
same,glycan array binding signal (z-score),Neu5Gc(a2-6)GalNAc,-0.044
same,glycan array binding signal (z-score),[23],-0.252
same,glycan array binding signal (z-score),[24],-0.326
same,glycan array binding signal (z-score),[25],-0.306
same,glycan array binding signal (z-score),[26],0.22
same,glycan array binding signal (z-score),[27],-0.006

# Reference: the supplement of paper PMC8728848
